Some of the results follow. Viral Rep nickase domains cut single-stranded DNA in vitro (1 h at 37 °C, 3 µM enzyme); the outer parts of the 90-letter strands are left off. Uncut reads are compared with the no-enzyme pool on a log2 scale; uncut sequences lie near 0, cut ones below; no hit call is given. Shares of all reads are compared; uncut strands gain when others are lost, and binding without cutting may add a little.
Tests used:
Test in all cases: uncleaved DNA left, log2 of reads against the no-enzyme library (log2 ratio); higher = less cleavage (more negative = more Rep cleavage of the k-mer); sequences stand for … in CTCGTCCG…ACCGGAGA
[1] = system: T1, Rep nickase domain of Muscovy duck circovirus
T1 sequence (residues 1-111, tag not shown): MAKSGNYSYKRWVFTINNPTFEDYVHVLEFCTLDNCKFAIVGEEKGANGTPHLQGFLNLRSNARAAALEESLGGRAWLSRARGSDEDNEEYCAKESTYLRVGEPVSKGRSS
Description: (§1)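 A pool of 90-nt single-stranded DNAs with seven random bases just before the constant AC of the nick site (name = the seven bases) was cut by 3 µM recombinant His6-SUMO-tagged Rep nickase domain (300 nM DNA, 50 mM HEPES pH 8.0, 50 mM NaCl, 1 mM MnCl2, 1 h, 37 °C, three replicates). Uncut DNA was amplified and sequenced.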

[2] = system: T2, Rep nickase domain of banana bunchy top virus
T2 sequence (residues 1-94, tag not shown): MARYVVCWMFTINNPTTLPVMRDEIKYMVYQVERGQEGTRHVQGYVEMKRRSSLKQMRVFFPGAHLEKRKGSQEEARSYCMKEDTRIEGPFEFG
Description: as §1

[3] = system: T3, Rep nickase domain of cabbage leaf curl virus
T3 sequence (residues 1-116, tag not shown): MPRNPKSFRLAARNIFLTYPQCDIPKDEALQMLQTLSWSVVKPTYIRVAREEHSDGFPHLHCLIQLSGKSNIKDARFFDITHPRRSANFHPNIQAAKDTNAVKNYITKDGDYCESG
Description: as §1

[4] = system: T4, Rep nickase domain of chickpea chlorotic dwarf virus
T4 sequence (residues 1-124, tag not shown): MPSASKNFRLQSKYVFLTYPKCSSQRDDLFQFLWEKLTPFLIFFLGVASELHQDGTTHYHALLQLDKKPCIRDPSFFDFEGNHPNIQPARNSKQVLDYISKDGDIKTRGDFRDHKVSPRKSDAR
Description: as §1

[5] = system: T5, Rep nickase domain of faba bean necrotic yellows virus
T5 sequence (residues 1-98, tag not shown): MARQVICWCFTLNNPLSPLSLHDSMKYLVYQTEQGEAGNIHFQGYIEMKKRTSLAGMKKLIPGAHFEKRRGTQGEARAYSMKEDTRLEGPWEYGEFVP
Description: as §1

[6] = system: T6, Rep nickase domain of maize striate mosaic virus
T6 sequence (residues 1-117, tag not shown): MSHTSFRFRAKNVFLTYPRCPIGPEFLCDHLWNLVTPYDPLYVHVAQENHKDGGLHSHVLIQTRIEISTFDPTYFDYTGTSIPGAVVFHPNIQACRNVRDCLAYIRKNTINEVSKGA
Description: as §1

[7] = system: T7, Rep nickase domain of porcine circovirus 2
T7 sequence (residues 2-116, tag not shown): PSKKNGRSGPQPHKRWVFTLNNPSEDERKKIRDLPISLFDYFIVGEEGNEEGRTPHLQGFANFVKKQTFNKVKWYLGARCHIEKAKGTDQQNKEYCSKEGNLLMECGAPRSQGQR
Description: as §1

[8] = system: T8, Rep nickase domain of tomato yellow leaf curl virus
T8 sequence (residues 1-136, tag not shown): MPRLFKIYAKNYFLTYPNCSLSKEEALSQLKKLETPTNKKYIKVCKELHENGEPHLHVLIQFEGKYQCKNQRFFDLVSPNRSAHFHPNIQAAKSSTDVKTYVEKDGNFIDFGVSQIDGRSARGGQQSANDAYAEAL
Description: as §1

[9] = system: T9, Rep nickase domain of wheat dwarf virus
T9 sequence (residues 1-137, tag not shown): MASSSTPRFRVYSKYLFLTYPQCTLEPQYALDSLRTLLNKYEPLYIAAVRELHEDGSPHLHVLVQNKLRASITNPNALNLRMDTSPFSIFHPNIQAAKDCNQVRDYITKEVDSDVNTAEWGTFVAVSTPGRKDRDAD
Description: as §1

| Sequence | uncleaved DNA left (log2) [1] | uncleaved DNA left (log2) [2] | uncleaved DNA left (log2) [3] | uncleaved DNA left (log2) [4] | uncleaved DNA left (log2) [5] | uncleaved DNA left (log2) [6] | uncleaved DNA left (log2) [7] | uncleaved DNA left (log2) [8] | uncleaved DNA left (log2) [9] |
| --- | --- | --- | --- | --- | --- | --- | --- | --- | --- |
| CGTACGA | 0.0555 | -0.116 | -0.113 | -0.121 | 0.0299 | -0.58 | 0.0507 | -0.0843 | -0.0273 |
| GACGGCC | 0.00376 | 0.0953 | 0.182 | 0.589 | -0.0336 | 0.33 | 0.0834 | 0.0487 | 0.153 |
| AGACAGC | -0.117 | -0.0362 | 0.448 | 1.27 | 0.0104 | 1.07 | 0.191 | 0.00243 | 0.0251 |
| TCATTCC | 0.039 | -0.0255 | 0.223 | 0.212 | -0.0212 | -0.0658 | 0.0593 | -0.0201 | -0.0142 |
| CGGGGTA | 0.063 | 0.0295 | 0.559 | 0.957 | 0.0179 | 1.6 | 0.107 | 0.0225 | 0.168 |
| CGAAATG | -0.032 | -0.0319 | -0.122 | 0.513 | -0.0918 | 0.944 | -0.0214 | -0.0226 | 0.0475 |
| GTTGATC | 0.072 | -0.0745 | 0.344 | 0.82 | -0.00641 | 1.33 | 0.022 | -0.0624 | 0.0288 |
| GCCGTAC | 0.0625 | -0.112 | 0.143 | 0.16 | -0.068 | 0.119 | -0.032 | -0.0533 | -0.0298 |
| AAACGAG | -0.117 | -0.0428 | -0.117 | -0.0986 | 0.0226 | -0.874 | 0.0765 | -0.0751 | 0.00762 |
| TGGACCC | 0.0732 | 0.065 | 0.609 | 1.5 | -0.0848 | 1.89 | 0.0447 | -0.0495 | 0.0552 |
| AAGTTTG | 0.144 | 0.0313 | -0.213 | -0.32 | -0.0368 | -0.512 | -0.859 | -0.0443 | 0.0654 |
| AAGACGA | 0.134 | 0.0169 | 0.171 | 0.368 | 0.0794 | -0.175 | 0.168 | 0.115 | 0.0587 |
| TGCCGCT | -0.0546 | -0.151 | -0.179 | -0.863 | 0.0149 | -0.868 | -0.0819 | -0.144 | -0.0883 |
| AGGTAGA | -0.0721 | -0.0151 | -0.124 | 0.0672 | -0.0445 | -0.237 | -0.0447 | -0.0913 | -0.119 |
| ACTACGG | 0.00715 | 0.033 | -0.231 | -0.0563 | 0.0285 | -0.538 | 0.00312 | -0.0158 | -0.0525 |
| GAAGTGA | 0.171 | 0.0234 | -0.0127 | 0.322 | 0.0666 | -0.163 | 0.121 | 0.02 | 0.0647 |
| AAGCGTA | 0.167 | 0.0713 | 0.096 | 0.0779 | 0.196 | 0.204 | -0.0195 | 0.135 | 0.0299 |
| CACAACA | -0.0852 | -0.0245 | -0.324 | -2.67 | -0.106 | -0.749 | -0.0597 | -0.0556 | -0.0368 |
| TTATTCA | -0.126 | 0.0652 | 0.19 | -0.36 | -0.0957 | 0.0829 | -0.182 | 0.0979 | 0.115 |
| GGTAGTA | -0.046 | 0.0717 | 0.456 | 1.02 | 0.00668 | 1.75 | 0.117 | 0.0488 | 0.0464 |
| GCATCTA | -0.037 | 0.0854 | 0.0461 | -0.228 | -0.0456 | 0.0617 | -0.0395 | -0.0854 | 0.083 |
| AGGCAAA | -0.0444 | 0.0951 | 0.319 | 0.658 | -0.0105 | 0.371 | 0.0756 | 0.0762 | 0.176 |
| CCCTGTA | -0.103 | -0.129 | -0.228 | -1.23 | -0.00144 | -0.529 | -0.432 | -0.0303 | -0.161 |
| ACAGTCA | -0.0572 | 0.00188 | -0.263 | -1.52 | -0.031 | -0.905 | -0.0423 | -0.132 | -0.126 |
| CACAGCA | 0.15 | 0.038 | -0.382 | -1.37 | 0.0297 | -1.05 | -0.0851 | -0.0432 | 0.0337 |
| TTTTCGG | 0.0582 | 0.0266 | 0.514 | 1.47 | -0.0376 | 2 | 0.0321 | -0.0609 | 0.0317 |
| GACAGGC | -0.0339 | 0.0871 | 0.228 | 0.708 | -0.0122 | -0.119 | 0.148 | 0.0625 | 0.0287 |
| TCCACTC | 0.0102 | -0.0581 | 0.0956 | -0.689 | -0.11 | -0.618 | -0.0359 | -0.137 | -0.0157 |
| GTAGACA | 0.106 | 0.253 | 0.693 | 1.6 | 0.0515 | 2.09 | 0.271 | 0.0941 | 0.137 |
| CGTAAAC | -0.0193 | -0.0196 | -0.0308 | -0.248 | 0.0572 | -0.597 | -0.0118 | 0.00193 | 0.0373 |
